# In the supplement of paper PMC8728848:
# The other results are listed elsewhere or left out.
# Experiments:
# Assay in all cases: glycan array binding signal (z-score within array); higher = stronger binding
# Details in all cases: glycan notation: IUPAC condensed, linker removed; mutation: W10H
# [1] = biological target: GlcNAc(b1-3)Gal(b1-3)GalNAc
# How it was run: (§1)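 Arrays were curated from the Consortium for Functional Glycomics database, 3228 in total, and kept only where the protein sequence was available. Binding is expressed as a within-array Z-score. This score was averaged across arrays of the same protein sequence at different concentrations or buffers and across linkers, and negative values can be read as non-binding.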
# GlcNAc(b1-3)Gal(b1-4)Glc = biological target: GlcNAc(b1-3)Gal(b1-4)Glc
# How it was run: as §1
# [2] = biological target: GlcNAc(b1-3)Gal(b1-4)GlcNAc
# How it was run: as §1
# [3] = biological target: GlcNAc(b1-3)Gal(b1-4)GlcNAc(b1-2)Man(a1-3)[GlcNAc(b1-3)Gal(b1-4)GlcNAc(b1-2)Man(a1-6)]Man(b1-4)GlcNAc(b1-4)GlcNAc
# How it was run: as §1
# [4] = biological target: GlcNAc(b1-3)Gal(b1-4)GlcNAc(b1-2)Man(a1-3)[GlcNAc(b1-3)Gal(b1-4)GlcNAc(b1-2)Man(a1-6)]Man(b1-4)GlcNAc(b1-4)[Fuc(a1-6)]GlcNAc
# How it was run: as §1
# [5] = biological target: GlcNAc(b1-3)Gal(b1-4)GlcNAc(b1-2)[GlcNAc(b1-3)Gal(b1-4)GlcNAc(b1-6)]Man(a1-6)[GlcNAc(b1-3)Gal(b1-4)GlcNAc(b1-2)Man(a1-3)]Man(b1-4)GlcNAc(b1-4)GlcNAc
# How it was run: as §1
# [6] = biological target: GlcNAc(b1-3)Gal(b1-4)GlcNAc(b1-3)Gal(b1-4)GlcNAc
# How it was run: as §1
# [7] = biological target: GlcNAc(b1-3)Gal(b1-4)GlcNAc(b1-3)Gal(b1-4)GlcNAc(b1-2)Man(a1-3)[GlcNAc(b1-3)Gal(b1-4)GlcNAc(b1-3)Gal(b1-4)GlcNAc(b1-2)Man(a1-6)]Man(b1-4)GlcNAc(b1-4)GlcNAc
# How it was run: as §1
# [8] = biological target: GlcNAc(b1-3)Gal(b1-4)GlcNAc(b1-3)Gal(b1-4)GlcNAc(b1-2)Man(a1-3)[GlcNAc(b1-3)Gal(b1-4)GlcNAc(b1-3)Gal(b1-4)GlcNAc(b1-2)Man(a1-6)]Man(b1-4)GlcNAc(b1-4)[Fuc(a1-6)]GlcNAc
# How it was run: as §1
# [9] = biological target: GlcNAc(b1-3)Gal(b1-4)GlcNAc(b1-3)Gal(b1-4)GlcNAc(b1-2)[GlcNAc(b1-3)Gal(b1-4)GlcNAc(b1-3)Gal(b1-4)GlcNAc(b1-6)]Man(a1-6)[GlcNAc(b1-3)Gal(b1-4)GlcNAc(b1-3)Gal(b1-4)GlcNAc(b1-2)Man(a1-3)]Man(b1-4)GlcNAc(b1-4)[Fuc(a1-6)]GlcNAc
# How it was run: as §1
# [10] = biological target: GlcNAc(b1-3)Gal(b1-4)GlcNAc(b1-3)Gal(b1-4)GlcNAc(b1-3)Gal(b1-4)GlcNAc(b1-2)Man(a1-3)[GlcNAc(b1-3)Gal(b1-4)GlcNAc(b1-3)Gal(b1-4)GlcNAc(b1-3)Gal(b1-4)GlcNAc(b1-2)Man(a1-6)]Man(b1-4)GlcNAc(b1-4)GlcNAc
# How it was run: as §1
# [11] = biological target: GlcNAc(b1-3)Gal(b1-4)GlcNAc(b1-3)Gal(b1-4)GlcNAc(b1-3)Gal(b1-4)GlcNAc(b1-2)Man(a1-3)[GlcNAc(b1-3)Gal(b1-4)GlcNAc(b1-3)Gal(b1-4)GlcNAc(b1-3)Gal(b1-4)GlcNAc(b1-2)Man(a1-6)]Man(b1-4)GlcNAc(b1-4)[Fuc(a1-6)]GlcNAc
# How it was run: as §1
# [12] = biological target: GlcNAc(b1-3)Gal(b1-4)GlcNAc(b1-3)Gal(b1-4)GlcNAc(b1-3)Gal(b1-4)GlcNAc(b1-2)[GlcNAc(b1-3)Gal(b1-4)GlcNAc(b1-3)Gal(b1-4)GlcNAc(b1-3)Gal(b1-4)GlcNAc(b1-6)]Man(a1-6)[GlcNAc(b1-3)Gal(b1-4)GlcNAc(b1-3)Gal(b1-4)GlcNAc(b1-3)Gal(b1-4)GlcNAc(b1-2)Man(a1-3)]Man(b1-4)GlcNAc(b1-4)[Fuc(a1-6)]GlcNAc
# How it was run: as §1
# [13] = biological target: GlcNAc(b1-3)Gal(b1-4)GlcNAc(b1-3)Gal(b1-4)GlcNAc(b1-3)Gal(b1-4)GlcNAc(b1-3)Gal(b1-4)GlcNAc(b1-2)Man(a1-3)[GlcNAc(b1-3)Gal(b1-4)GlcNAc(b1-3)Gal(b1-4)GlcNAc(b1-3)Gal(b1-4)GlcNAc(b1-3)Gal(b1-4)GlcNAc(b1-2)Man(a1-6)]Man(b1-4)GlcNAc(b1-4)GlcNAc
# How it was run: as §1
# [14] = biological target: GlcNAc(b1-3)Gal(b1-4)GlcNAc(b1-3)Gal(b1-4)GlcNAc(b1-3)Gal(b1-4)GlcNAc(b1-3)Gal(b1-4)GlcNAc(b1-2)Man(a1-3)[GlcNAc(b1-3)Gal(b1-4)GlcNAc(b1-3)Gal(b1-4)GlcNAc(b1-3)Gal(b1-4)GlcNAc(b1-3)Gal(b1-4)GlcNAc(b1-2)Man(a1-6)]Man(b1-4)GlcNAc(b1-4)[Fuc(a1-6)]GlcNAc
# How it was run: as §1
# [15] = biological target: GlcNAc(b1-3)Gal(b1-4)GlcNAc(b1-3)Gal(b1-4)GlcNAc(b1-3)Gal(b1-4)GlcNAc(b1-3)Gal(b1-4)GlcNAc(b1-2)[GlcNAc(b1-3)Gal(b1-4)GlcNAc(b1-3)Gal(b1-4)GlcNAc(b1-3)Gal(b1-4)GlcNAc(b1-3)Gal(b1-4)GlcNAc(b1-6)]Man(a1-6)[GlcNAc(b1-3)Gal(b1-4)GlcNAc(b1-3)Gal(b1-4)GlcNAc(b1-3)Gal(b1-4)GlcNAc(b1-3)Gal(b1-4)GlcNAc(b1-2)Man(a1-3)]Man(b1-4)GlcNAc(b1-4)[Fuc(a1-6)]GlcNAc
# How it was run: as §1
# [16] = biological target: GlcNAc(b1-3)Gal(b1-4)GlcNAc(b1-3)Gal(b1-4)GlcNAc(b1-3)GalNAc
# How it was run: as §1
# [17] = biological target: GlcNAc(b1-3)Gal(b1-4)GlcNAc(b1-3)GalNAc
# How it was run: as §1
# [18] = biological target: GlcNAc(b1-3)Gal(b1-4)GlcNAc(b1-3)[GlcNAc(b1-3)Gal(b1-4)GlcNAc(b1-3)]GalNAc
# How it was run: as §1
# [19] = biological target: GlcNAc(b1-3)Gal(b1-4)GlcNAc(b1-6)[Gal(b1-3)]GalNAc
# How it was run: as §1
# [20] = biological target: GlcNAc(b1-3)Gal(b1-4)GlcNAc(b1-6)[GlcNAc(b1-3)Gal(b1-3)]GalNAc
# How it was run: as §1
# [21] = biological target: GlcNAc(b1-3)Gal(b1-4)GlcNAc(b1-6)[GlcNAc(b1-3)]Gal(b1-4)GlcNAc
# How it was run: as §1
# GlcNAc(b1-3)GalNAc = biological target: GlcNAc(b1-3)GalNAc
# How it was run: as §1
# GlcNAc(b1-3)Man = biological target: GlcNAc(b1-3)Man
# How it was run: as §1
# [22] = biological target: GlcNAc(b1-3)[GlcNAc(b1-4)][GlcNAc(b1-6)]GlcNAc
# How it was run: as §1
# [23] = biological target: GlcNAc(b1-3)[GlcNAc(b1-6)]Gal(b1-4)GlcNAc
# How it was run: as §1
# [24] = biological target: GlcNAc(b1-3)[GlcNAc(b1-6)]GalNAc
# How it was run: as §1
# [25] = biological target: GlcNAc(b1-4)Gal(b1-4)GlcNAc
# How it was run: as §1
# GlcNAc(b1-4)GlcNAc = biological target: GlcNAc(b1-4)GlcNAc
# How it was run: as §1
# [26] = biological target: GlcNAc(b1-4)GlcNAc(b1-4)GlcNAc
# How it was run: as §1
# [27] = biological target: GlcNAc(b1-4)GlcNAc(b1-4)GlcNAc(b1-4)GlcNAc(b1-4)GlcNAc
# How it was run: as §1
# [28] = biological target: GlcNAc(b1-4)GlcNAc(b1-4)GlcNAc(b1-4)GlcNAc(b1-4)GlcNAc(b1-4)GlcNAc
# How it was run: as §1
# [29] = biological target: GlcNAc(b1-4)[GlcNAc(b1-6)]GalNAc
# How it was run: as §1
# [30] = biological target: GlcNAc(b1-6)Gal(b1-4)GlcNAc
# How it was run: as §1
# GlcNAc(b1-6)GalNAc = biological target: GlcNAc(b1-6)GalNAc
# How it was run: as §1
# [31] = biological target: GlcNAc6S(b1-3)Gal(b1-4)GlcNAc
# How it was run: as §1
# Kdn(a2-3)Gal(b1-3)GalNAc = biological target: Kdn(a2-3)Gal(b1-3)GalNAc
# How it was run: as §1
# Kdn(a2-3)Gal(b1-3)GlcNAc = biological target: Kdn(a2-3)Gal(b1-3)GlcNAc
# How it was run: as §1
# Kdn(a2-3)Gal(b1-4)Glc = biological target: Kdn(a2-3)Gal(b1-4)Glc
# How it was run: as §1
# Kdn(a2-3)Gal(b1-4)GlcNAc = biological target: Kdn(a2-3)Gal(b1-4)GlcNAc
# How it was run: as §1
# [32] = biological target: Kdn(a2-3)Gal(b1-4)[Fuc(a1-3)]GlcNAc
# How it was run: as §1
# Kdn(a2-6)Gal(b1-4)GlcNAc = biological target: Kdn(a2-6)Gal(b1-4)GlcNAc
# How it was run: as §1
# [33] = biological target: Man(a1-2)Man(a1-2)Man(a1-3)Man
# How it was run: as §1
# [34] = biological target: Man(a1-2)Man(a1-2)Man(a1-6)[Man(a1-3)]Man
# How it was run: as §1
# Man(a1-2)Man(a1-3)Man = biological target: Man(a1-2)Man(a1-3)Man
# How it was run: as §1
binder,measurement,setting,value
Banana lectin (Musa acuminata) (protein) MNGAIKVGAHGGNGGSAFDMGPAYRIISVKIFSGDVVDGVDVTFTYYGKTETRHYGGSGGTPHEIVLQEGEYLVGMAGEVANYHGAVVLGKLGFSTNKKAYGPFGNTGGTPFSLPIAAGKISGFFGRGGKFLDAIGVYLEPLEHHHHHH,glycan array binding signal (z-score),[1],-0.145
same,glycan array binding signal (z-score),GlcNAc(b1-3)Gal(b1-4)Glc,-0.133
same,glycan array binding signal (z-score),[2],-0.154
same,glycan array binding signal (z-score),[3],-0.147
same,glycan array binding signal (z-score),[4],-0.095
same,glycan array binding signal (z-score),[5],-0.125
same,glycan array binding signal (z-score),[6],-0.177
same,glycan array binding signal (z-score),[7],-0.172
same,glycan array binding signal (z-score),[8],-0.165
same,glycan array binding signal (z-score),[9],-0.098
same,glycan array binding signal (z-score),[10],-0.109
same,glycan array binding signal (z-score),[11],-0.128
same,glycan array binding signal (z-score),[12],-0.002
same,glycan array binding signal (z-score),[13],-0.097
same,glycan array binding signal (z-score),[14],-0.085
same,glycan array binding signal (z-score),[15],-0.035
same,glycan array binding signal (z-score),[16],-0.168
same,glycan array binding signal (z-score),[17],-0.16
same,glycan array binding signal (z-score),[18],-0.132
same,glycan array binding signal (z-score),[19],-0.167
same,glycan array binding signal (z-score),[20],-0.1
same,glycan array binding signal (z-score),[21],-0.197
same,glycan array binding signal (z-score),GlcNAc(b1-3)GalNAc,-0.175
same,glycan array binding signal (z-score),GlcNAc(b1-3)Man,-0.144
same,glycan array binding signal (z-score),[22],-0.165
same,glycan array binding signal (z-score),[23],-0.143
same,glycan array binding signal (z-score),[24],-0.153
same,glycan array binding signal (z-score),[25],-0.146
same,glycan array binding signal (z-score),GlcNAc(b1-4)GlcNAc,-0.174
same,glycan array binding signal (z-score),[26],-0.159
same,glycan array binding signal (z-score),[27],-0.18
same,glycan array binding signal (z-score),[28],-0.151
same,glycan array binding signal (z-score),[29],-0.165
same,glycan array binding signal (z-score),[30],-0.138
same,glycan array binding signal (z-score),GlcNAc(b1-6)GalNAc,-0.179
same,glycan array binding signal (z-score),[31],-0.152
same,glycan array binding signal (z-score),Kdn(a2-3)Gal(b1-3)GalNAc,-0.164
same,glycan array binding signal (z-score),Kdn(a2-3)Gal(b1-3)GlcNAc,-0.109
same,glycan array binding signal (z-score),Kdn(a2-3)Gal(b1-4)Glc,-0.192
same,glycan array binding signal (z-score),Kdn(a2-3)Gal(b1-4)GlcNAc,-0.175
same,glycan array binding signal (z-score),[32],-0.166
same,glycan array binding signal (z-score),Kdn(a2-6)Gal(b1-4)GlcNAc,-0.142
same,glycan array binding signal (z-score),[33],0.986
same,glycan array binding signal (z-score),[34],7.33
same,glycan array binding signal (z-score),Man(a1-2)Man(a1-3)Man,1.78
